Test results published in PubChem BioAssay AID686971 (National Center for Advancing Translational Sciences (NCATS), 2013).
About 7,500 (2.1%) of roughly 360,000 compounds were called active. Inconclusive results, whose numbers are uncertain, are shown with a selection of clear calls. The call rests on the fitted dose curve; in most records, active means well fitted cell-killing curve with a large enough effect; inconclusive means small, poorly fitted or top-dose-only effect, or effect the other way, or another doubt; inactive means no such curve, though single readings can be large or run the other way. No potency is given beside an inconclusive call; the fits are too rough.

Test: qHTS for induction of synthetic lethality in tumor cells producing 2HG: qHTS for the HT-1080-IDH1KD cell line;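 on activity, negative = toxicity: 0% = DMSO wells and -100% = cell-free medium wells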
Conditions: HT-1080 IDH1 knockdown viability, ATP luminescence, 48 h; activity, negative = toxicity: at 46.1 µM (top of the series) unless noted
Outline: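 Knockdown cells (IDH1KD HT-1080) received compounds 2 h after plating at 750 cells/well and were kept 48 h at 37 °C in 5% FBS RPMI. A CellTiter-Glo luminescence read gave % activity for curve fitting.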
Potency means the concentration at half of the fitted maximal effect; tags describe the fitted curve by direction and shape.

Structure (SMILES) | Potency | activity, negative = toxicity
O=C(O)/C(=C\c1ccc(Cl)c([N+](=O)[O-])c1)c1ccc(S(=O)(=O)N2CCCC2)s1 | inactive | –
CC(C)C[C@@H](CN1CCC[C@H]1CN1C(=O)C(=O)NC[C@@H]1Cc1ccc(O)cc1)N1C[C@H](Cc2ccc(O)cc2)N(CC2CCCCCC2)C(=O)C1=O | inconclusive [cytotoxic, single point] | –
Cc1ccc(S(=O)(=O)N2CCCCC2CCNC(=O)C(=O)NCCc2ccco2)cc1 (stereo not drawn) | active: 18.4 µM | –
O=c1[nH]c2cccc(Cl)c2n(CCNc2ncc(C(F)(F)F)cc2Cl)c1=O | inconclusive [cytotoxic, single point] | –
O=C(Nc1ccc(N2CCCCCC2)cc1)c1cccc(S(=O)(=O)N2CCOCC2)c1 | inconclusive [cytotoxic, single point] | –
Clc1ccccc1CSc1cnnc2ccccc12 | – | inconclusive: -35% [cytotoxic]
CCc1nc2ccc(C(=O)Nc3ccc(OC)c(OC)c3)cn2c1N(C)Cc1nccs1 | inactive | –
COc1cccc(NC(=O)Nc2nc(-c3ccc(OC)c(OC)c3)cs2)c1 | active: 7.31 µM | –
CC(C)C[C@H](N)c1nnc(S(=O)(=O)Cc2cccc(F)c2)o1 | – | inconclusive: -86.2%
COc1ccc(O)c(/C=C(\C#N)C(=O)Nc2cccnc2)c1 | inconclusive [rising, partial curve, poor fit] | –
Cc1ccc(CC(=O)NC(C)CCc2ccccc2)cc1 (stereo not drawn) | inactive | –
Cc1cc(NC(=O)CSc2nc(-c3cccs3)nc3ccccc23)no1 | active: 5.17 µM | –
O=C(NC(=S)Nc1cccc(Cl)c1N1CCCCC1)c1cccs1 | active: 10 µM | –
COCCN(C(=O)CNC(=O)c1ccco1)C(C(=O)NC1CCCCC1)c1cccs1 (stereo not drawn) | inactive | –
CC(C)=C1SC(N2CCOCC2)=NC1=O | inactive | –
O=C1N[C@@H](Cc2ccccc2)COC(=O)[C@@H](Cc2ccc(F)cc2)C/C=C\C[C@@H]1CC(=O)N(CCO)Cc1ccccc1 | inconclusive [cytotoxic, single point] | –
COc1ccccc1N1CCN(C(=O)CCCCn2c(=O)[nH]c3ccsc3c2=O)CC1 | inactive | –
Nc1cc(S(=O)(=O)N2CCOCC2)ccc1N1CCCCC1 | inactive | –
COc1ccccc1NC(c1cccnc1)c1ccc2cccnc2c1O (stereo not drawn) | inconclusive [cytotoxic, partial curve] | –
CCOCCCNS(=O)(=O)c1ccc(NC(=O)N2c3ccccc3Sc3ccccc32)cc1 | inconclusive [cytotoxic, single point] | –
Cc1nc(SCC(=O)Nc2ccc(S(=O)(=O)N3CCOCC3)cc2)c2c(C)c(C)sc2n1 | inconclusive [cytotoxic, single point] | –
COc1ccc2ccccc2c1/C=N\NC(=O)c1cccnc1 | inactive | –
Cn1cc([N+](=O)[O-])c(C(=O)Nc2ccc(-c3nc4ccccc4[nH]3)cc2)n1 | inconclusive [cytotoxic, full curve] | –

Structure (SMILES) | Potency | activity, negative = toxicity
NS(=O)(=O)c1ccc(CNC(=O)c2ccc(S(=O)(=O)NCc3ccco3)cc2)cc1 | inactive | –
COc1cc(-c2nccc3cc4c(cc23)OCO4)cc(OC)c1OC | active: 4.61 µM | –
CCOC(=O)C(C(=O)OCC)c1cc(Br)c2noc3c2c1C(=O)c1ccccc1-3 | active: 11.6 µM | –
COc1cc(NC(=O)c2ccc(Br)cc2)c(OC)cc1NC(=O)c1ccccc1 | inactive | –
COc1ccc(/C=C2/SC(=S)N(CCCC(=O)Nc3ccc(O)cc3)C2=O)cc1 | inconclusive [cytotoxic, single point] | –
COc1ccc(-c2oc(NC(=O)CSc3nncn3C)c(C#N)c2-c2ccc(OC)cc2)cc1 | active: 16.4 µM | –
CCOC(=O)/C(=C\c1ccc(OC(F)F)cc1)C1=Nn2c(nnc2-c2ccc(Cl)cc2)SC1 | active: 3.66 µM | –
CSCCNC(=O)C1(C)CCN1C(=O)CCc1ccccc1 (stereo not drawn) | inactive | –
CCc1ccc(NC(=O)COc2ccc3c(c2)OCO3)cc1 | inconclusive [cytotoxic, partial curve] | –
Cc1ccccc1OCC(O)Cn1c(NCc2ccccc2)nc2c1c(=O)[nH]c(=O)n2C (stereo not drawn) | inconclusive [cytotoxic, single point] | –
COc1cc(CNc2ccc3[nH]c(=O)[nH]c3c2)ccc1OCc1ccc(C)cc1 | – | inconclusive: -1.39% [cytotoxic]
CC1=NN(C(C#N)c2ccc(F)cc2)C(c2ccccc2)C1 (stereo not drawn) | inactive | –
CC(C)C(N)c1csc(NC(=O)Nc2cccc(C(F)(F)F)c2)n1 (stereo not drawn) | active: 23.1 µM | –
O=C(C[C@H]1CC[C@H]2[C@@H](COC[C@@H](O)CN2C(=O)c2cnccn2)O1)NCc1ccc(Oc2ccccc2)cc1 | inactive | –
CN(Cc1nc2ccccc2c(=O)[nH]1)C(=O)COc1ccccc1Cc1ccccc1 | inconclusive [cytotoxic, single point] | –
Cc1noc2ncnc(Sc3c(Cl)cccc3Cl)c12 | inconclusive [cytotoxic, single point] | –
CCN(C(=O)CN1C(=O)NC(c2ccccc2)(c2ccc(C)c(C)c2)C1=O)C1CCCCC1 (stereo not drawn) | inconclusive [cytotoxic, single point] | –
O=c1c2[nH]c3ccc(F)cc3c2ncn1CCC1=CCCCC1 | inactive | –
CCCCNS(=O)(=O)c1ccc(NS(=O)(=O)c2c(C)cc(C)cc2C)cc1 | inconclusive [cytotoxic, single point] | –
Cn1nc([N+](=O)[O-])c(C(C#N)c2ccccn2)c(Cl)c1=O (stereo not drawn) | inconclusive [cytotoxic, single point] | –
CCN(CC)C(=O)CSc1nc(N)c(C#N)c(-c2cccs2)c1C#N | inconclusive [cytotoxic, single point] | –
Cc1ccc(/C=N/NC(=O)Cc2c[nH]c3ccccc23)c(C)c1 | inconclusive [cytotoxic, single point] | –
CC(=O)c1c(C(C)=O)c(C)n(Cc2ccc(Cl)cc2)c1C | inconclusive [cytotoxic, single point] | –

Structure (SMILES) | Potency | activity, negative = toxicity
Cc1cc(C)cc(S(=O)(=O)c2cnc3ccccc3n2)c1 | inconclusive [cytotoxic, single point] | –
C=CCN(c1ccccc1)S(=O)(=O)c1cccc(C(=O)N2CC(C)CC(C)C2)c1 (stereo not drawn) | inconclusive [cytotoxic, partial curve] | –
COc1ccc(N2CCN(CCCNC(=O)CCC(=O)N3CCOc4ccc(Cl)cc43)CC2)cc1 | inconclusive [cytotoxic, single point] | –
C=CCn1c(NCc2cc(Cl)ccc2O)nc2ccccc21 | inconclusive [cytotoxic, single point] | –
Cc1ccc(N(C(=O)Cc2cccs2)C(C(=O)NC2CCCCC2)c2ccccn2)cc1C (stereo not drawn) | inconclusive [cytotoxic, single point] | –
OCCCCNCc1cc(Br)ccc1OCc1ccccc1 | inactive | –
CCN(CC)S(=O)(=O)c1cccc(C(=O)Nc2ccccc2)c1 | inconclusive [cytotoxic, partial curve] | –
Cc1cccc(C)c1NC(=O)C(c1ccc(C(F)(F)F)cc1)n1c(=O)c(-c2ccco2)nc2ccccc21 (stereo not drawn) | inconclusive [cytotoxic, single point] | –
O=C(c1cc2nc(-c3ccco3)cc(C(F)(F)F)n2n1)N1CCCCCC1 | – | inconclusive: -2.08%
COc1ccc(-c2cc([C@H]3[C@@H]4C=CCC[C@@]4(C)C(=O)N3Cc3ccccc3)ccc2F)cc1OC | inconclusive [cytotoxic, single point] | –
CCOc1ccccc1NC(=O)C(=O)N/N=C/c1cc(Br)ccc1O | inconclusive [cytotoxic, full curve] | –
Cc1c(C)n(Cc2ccc(F)cc2)c2ccc(C(=O)NCCCN3CCOCC3)cc12 | inconclusive [cytotoxic, single point] | –
NC(=O)c1cccc(-c2coc3c(C(=O)NCc4cccnc4)cccc23)c1 | inconclusive [cytotoxic, single point] | –
CC(C)N(Cc1c(O)ccc2c(=O)c(-c3ccc(Cl)cc3)coc12)C(C)C | inconclusive [cytotoxic, single point] | –
CCOC(=O)C(C)Sc1nc2c(cnn2-c2ccc(C)cc2)c(=O)[nH]1 (stereo not drawn) | inconclusive [cytotoxic, single point] | –
C/C(=N\NC(=O)c1ccccc1F)c1ccccn1 | inconclusive [cytotoxic, full curve] | –
Cc1ccccc1-c1nc(S(=O)(=O)c2ccc(Cl)cc2)c(NCCN2CCOCC2)o1 | inconclusive [cytotoxic, single point] | –
COc1ccc(-c2csc(NC(C)c3nc4cc(Cl)c(Cl)cc4n3CCCO)n2)cc1 (stereo not drawn) | inconclusive [cytotoxic, single point] | –
Cc1cc(C)c2c(C)nn(C3CCCCC3)c2n1 | inactive | –
COc1ccc(-n2nnnc2C(CCc2ccccc2)N2CCN(C/C=C/c3ccccc3)CC2)cc1 (stereo not drawn) | inconclusive [cytotoxic, single point] | –
O=C1NC(Cc2ccc(O)cc2)c2nc3cc(Cl)ccc3c(=O)n2-c2ncccc21 (stereo not drawn) | inconclusive [cytotoxic, single point] | –
O=C(c1ccccc1)C(Nc1cccc([N+](=O)[O-])c1)c1ccccc1 (stereo not drawn) | inconclusive [cytotoxic, partial curve] | –
